# From the supplement of paper PMC8728848
# The list shows a part of the results.
# B1: GSL-I (Griffonia simplicifolia) (protein)
# chain: FNLPNFWSDVKDNIIFQGDANTTAGTLQLCKTNQYGNPLQYRAGRALYSDPVQLWDNKTGSVASFYTEFTFFLKITGDGPADGLAFFLAPPDSDVKDAGAYLGLFNKSTATQPSKNQVVAVEFDTWKNTDFPEPSYRHIGINVNSIVSVATKRWEDSDIFSGKIATARISYDGSAKILTVVLSYPDGADYILSHSVDLSKNLPNPIRVGISASTGANQFLTVYVLSWRFSSALQSTSVNAAMGPEIIRTVV
# What was measured:
# Assay in all cases: glycan array binding signal (z-score within array); higher = stronger binding
# Details in all cases: glycan notation: IUPAC condensed, linker removed
# [1] = target: Gal(b1-4)GlcNAc(b1-2)Man(a1-3)[Gal(b1-4)GlcNAc(b1-2)Man(a1-6)][GlcNAc(b1-4)]Man(b1-4)GlcNAc(b1-4)[Fuc(a1-6)]GlcNAc
# Procedure, shortened: (§1)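 Glycan array data came from 3228 arrays in the Consortium for Functional Glycomics database, and only arrays with an available protein sequence were kept. Glycan names were put into IUPAC-condensed notation, and columns mapping to the same glycan were averaged. The binding signal is a within-array Z-score, averaged across arrays of one protein sequence run at different concentrations or buffers and across linkers. A negative Z-score can be read as non-binding.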
# [2] = target: Gal(b1-4)GlcNAc(b1-2)Man(a1-3)[GlcNAc(b1-2)Man(a1-6)]Man(b1-4)GlcNAc(b1-4)GlcNAc
# Procedure, shortened: as §1
# [3] = target: Gal(b1-4)GlcNAc(b1-2)Man(a1-3)[GlcNAc(b1-4)][Gal(b1-4)GlcNAc(b1-2)Man(a1-6)]Man(b1-4)GlcNAc(b1-4)GlcNAc
# Procedure, shortened: as §1
# [4] = target: Gal(b1-4)GlcNAc(b1-2)Man(a1-3)[Man(a1-6)]Man(b1-4)GlcNAc(b1-4)GlcNAc
# Procedure, shortened: as §1
# [5] = target: Gal(b1-4)GlcNAc(b1-2)Man(a1-6)Man(b1-4)GlcNAc(b1-4)GlcNAc
# Procedure, shortened: as §1
# [6] = target: Gal(b1-4)GlcNAc(b1-2)Man(a1-6)[GlcNAc(b1-2)Man(a1-3)]Man(b1-4)GlcNAc(b1-4)GlcNAc
# Procedure, shortened: as §1
# [7] = target: Gal(b1-4)GlcNAc(b1-2)Man(a1-6)[Man(a1-3)]Man(b1-4)GlcNAc(b1-4)GlcNAc
# Procedure, shortened: as §1
# [8] = target: Gal(b1-4)GlcNAc(b1-2)[Gal(b1-4)GlcNAc(b1-4)]Man(a1-3)[Gal(b1-4)GlcNAc(b1-2)Man(a1-6)]Man(b1-4)GlcNAc(b1-4)GlcNAc
# Procedure, shortened: as §1
# [9] = target: Gal(b1-4)GlcNAc(b1-2)[Gal(b1-4)GlcNAc(b1-4)]Man(a1-3)[Gal(b1-4)GlcNAc(b1-2)[Gal(b1-4)GlcNAc(b1-6)]Man(a1-6)]Man(b1-4)GlcNAc(b1-4)GlcNAc
# Procedure, shortened: as §1
# [10] = target: Gal(b1-4)GlcNAc(b1-2)[Gal(b1-4)GlcNAc(b1-4)]Man(a1-3)[GlcNAc(b1-4)][Gal(b1-4)GlcNAc(b1-2)Man(a1-6)]Man(b1-4)GlcNAc(b1-4)GlcNAc
# Procedure, shortened: as §1
# [11] = target: Gal(b1-4)GlcNAc(b1-2)[Gal(b1-4)GlcNAc(b1-4)]Man(a1-3)[GlcNAc(b1-4)][Gal(b1-4)GlcNAc(b1-2)[Gal(b1-4)GlcNAc(b1-6)]Man(a1-6)]Man(b1-4)GlcNAc(b1-4)GlcNAc
# Procedure, shortened: as §1
# [12] = target: Gal(b1-4)GlcNAc(b1-2)[Gal(b1-4)GlcNAc(b1-6)]Man(a1-6)[Gal(b1-4)GlcNAc(b1-2)Man(a1-3)]Man(b1-4)GlcNAc(b1-4)GlcNAc
# Procedure, shortened: as §1
# [13] = target: Gal(b1-4)GlcNAc(b1-2)[Gal(b1-4)GlcNAc(b1-6)]Man(a1-6)[Gal(b1-4)GlcNAc(b1-2)Man(a1-3)]Man(b1-4)GlcNAc(b1-4)[Fuc(a1-6)]GlcNAc
# Procedure, shortened: as §1
# [14] = target: Gal(b1-4)GlcNAc(b1-2)[Gal(b1-4)GlcNAc(b1-6)]Man(a1-6)[GlcNAc(b1-4)][Gal(b1-4)GlcNAc(b1-2)Man(a1-3)]Man(b1-4)GlcNAc(b1-4)GlcNAc
# Procedure, shortened: as §1
# [15] = target: Gal(b1-4)GlcNAc(b1-2)[Gal(b1-4)GlcNAc(b1-6)]Man(a1-6)[GlcNAc(b1-4)][Gal(b1-4)GlcNAc(b1-2)[Gal(b1-4)GlcNAc(b1-4)]Man(a1-3)]Man(b1-4)GlcNAc(b1-4)[Fuc(a1-6)]GlcNAc
# Procedure, shortened: as §1
# [16] = target: Gal(b1-4)GlcNAc(b1-3)Gal(b1-3)GalNAc
# Procedure, shortened: as §1
# [17] = target: Gal(b1-4)GlcNAc(b1-3)Gal(b1-3)GlcNAc
# Procedure, shortened: as §1
# [18] = target: Gal(b1-4)GlcNAc(b1-3)Gal(b1-4)Glc
# Procedure, shortened: as §1
binder,measurement,setting,value
B1,glycan array binding signal (z-score),[1],-0.149
same,glycan array binding signal (z-score),[2],-0.302
same,glycan array binding signal (z-score),[3],-0.194
same,glycan array binding signal (z-score),[4],-0.159
same,glycan array binding signal (z-score),[5],-0.055
same,glycan array binding signal (z-score),[6],-0.213
same,glycan array binding signal (z-score),[7],-0.194
same,glycan array binding signal (z-score),[8],-0.115
same,glycan array binding signal (z-score),[9],-0.161
same,glycan array binding signal (z-score),[10],-0.304
same,glycan array binding signal (z-score),[11],-0.176
same,glycan array binding signal (z-score),[12],0.098
same,glycan array binding signal (z-score),[13],0.097
same,glycan array binding signal (z-score),[14],-0.255
same,glycan array binding signal (z-score),[15],-0.272
same,glycan array binding signal (z-score),[16],-0.356
same,glycan array binding signal (z-score),[17],-0.161
same,glycan array binding signal (z-score),[18],-0.238
